Measured values taken from the antibiotic and cytotoxicity screens of Wong et al. (2023).
Some of the results follow.

Assays:
HSkMC = human skeletal muscle cells; assay: cytotoxicity call (relative viability < 0.9); conditions: 10 µM
HepG2 = assay: cytotoxicity call (relative viability < 0.9); conditions: 10 µM
S. aureus RN4220 = assay: growth inhibition call (relative growth <= 0.2); conditions: 50 µM

C[C@@H]1CN([C@@H](C)CO)C(=O)c2cccc(NC(=O)C3CCCCC3)c2O[C@@H]1CN(C)Cc1ccc(Cl)c(Cl)c1
inactive: cytotoxicity call (HSkMC) | cytotoxicity call (HepG2) | growth inhibition call (S. aureus RN4220)

CN1CCN(C(=O)C[C@@H]2CC[C@@H]3[C@H](COC[C@@H](O)CN3CC3CCCC3)O2)CC1
inactive: cytotoxicity call (HSkMC) | cytotoxicity call (HepG2) | growth inhibition call (S. aureus RN4220)

CCCN(C)C[C@H]1OCCCC[C@@H](C)Oc2ccc(NC(=O)c3ccccc3)cc2C(=O)N([C@H](C)CO)C[C@@H]1C
inactive: cytotoxicity call (HSkMC) | cytotoxicity call (HepG2) | growth inhibition call (S. aureus RN4220)

C[C@H](CO)N1C[C@H](C)[C@@H](CN(C)S(=O)(=O)c2cn(C)cn2)Oc2ccc(NS(=O)(=O)c3ccccc3)cc2C1=O
inactive: cytotoxicity call (HSkMC) | cytotoxicity call (HepG2) | growth inhibition call (S. aureus RN4220)

CC(=O)N1Cc2cc(C(=O)NCc3cc(F)cc(F)c3)nc(-c3cccc(C4=CCCC4)c3)c2[C@H]1CCO
inactive: cytotoxicity call (HSkMC) | cytotoxicity call (HepG2) | growth inhibition call (S. aureus RN4220)

O=C(C[C@@H]1C=C[C@H](NS(=O)(=O)c2ccc(F)cc2)[C@@H](CO)O1)NCc1ccc(Cl)c(Cl)c1
inactive: cytotoxicity call (HSkMC) | cytotoxicity call (HepG2) | growth inhibition call (S. aureus RN4220)

O=C(C[C@H]1CC[C@H]2[C@@H](COC[C@H](O)CN2C(=O)c2ccccn2)O1)NC1CCC1
inactive: cytotoxicity call (HSkMC) | cytotoxicity call (HepG2) | growth inhibition call (S. aureus RN4220)

CC(C)NCC(O)COc1ccc(CC(N)=O)cc1 (stereo not drawn)
inactive: cytotoxicity call (HSkMC) | cytotoxicity call (HepG2) | growth inhibition call (S. aureus RN4220)

C[C@H]1CN([C@@H](C)CO)C(=O)CCCn2cc(nn2)CO[C@@H]1CN(C)S(=O)(=O)c1ccc2c(c1)OCCCO2
inactive: cytotoxicity call (HSkMC) | cytotoxicity call (HepG2) | growth inhibition call (S. aureus RN4220)

C[C@@H]1CN([C@@H](C)CO)C(=O)c2cc(NC(=O)C3CCCCC3)ccc2O[C@@H](C)CCCCO[C@@H]1CN(C)C(=O)CCC(F)(F)F
inactive: cytotoxicity call (HSkMC) | cytotoxicity call (HepG2) | growth inhibition call (S. aureus RN4220)

Cc1noc(C)c1NC(=O)Nc1ccc2c(c1)C(=O)N([C@H](C)CO)C[C@@H](C)[C@H](CN(C)S(=O)(=O)c1cccs1)OCCCC[C@H](C)O2
inactive: cytotoxicity call (HSkMC) | cytotoxicity call (HepG2) | growth inhibition call (S. aureus RN4220)

C[C@@H]1CN([C@@H](C)CO)C(=O)c2cc(NC(=O)Cc3cn(C)c4ccccc34)ccc2O[C@@H]1CN(C)S(C)(=O)=O
inactive: cytotoxicity call (HSkMC) | cytotoxicity call (HepG2) | growth inhibition call (S. aureus RN4220)

CCNC(=O)C[C@H]1CC[C@@H]2[C@H](COC[C@H](O)CN2S(=O)(=O)c2ccc(Oc3ccccc3)cc2)O1
inactive: cytotoxicity call (HSkMC) | cytotoxicity call (HepG2) | growth inhibition call (S. aureus RN4220)

Cc1ccccc1OCC(=O)NCC(=O)O
inactive: cytotoxicity call (HSkMC) | cytotoxicity call (HepG2) | growth inhibition call (S. aureus RN4220)

CCN(Cc1ccncc1)C(=O)C(CO)c1ccccc1 (stereo not drawn)
inactive: cytotoxicity call (HSkMC) | cytotoxicity call (HepG2) | growth inhibition call (S. aureus RN4220)

C[C@@H]1CCCCO[C@H](CN(C)S(=O)(=O)c2ccc(Cl)cc2)[C@@H](C)CN([C@H](C)CO)C(=O)c2cc(NC(=O)Nc3cccc4ccccc34)ccc2O1
inactive: cytotoxicity call (HSkMC) | cytotoxicity call (HepG2) | growth inhibition call (S. aureus RN4220)

Cc1noc(C)c1S(=O)(=O)N(C)C[C@@H]1Oc2ccc(NC(=O)CCN3CCOCC3)cc2C(=O)N([C@H](C)CO)C[C@@H]1C
inactive: cytotoxicity call (HSkMC) | cytotoxicity call (HepG2) | growth inhibition call (S. aureus RN4220)

C[C@@H]1CN([C@H](C)CO)C(=O)c2cc(NS(=O)(=O)c3cccs3)ccc2O[C@H]1CN(C)Cc1ccncc1
inactive: cytotoxicity call (HSkMC) | cytotoxicity call (HepG2) | growth inhibition call (S. aureus RN4220)

C[C@H](CO)N1C[C@H](C)[C@@H](CN(C)S(=O)(=O)c2ccc(Cl)cc2)OCCCC[C@H](C)Oc2ccc(NC(=O)Nc3ccc4c(c3)OCO4)cc2C1=O
inactive: cytotoxicity call (HSkMC) | cytotoxicity call (HepG2) | growth inhibition call (S. aureus RN4220)

COC(=O)CC1C(C)(C)C(=O)C2CC3=C(CCC4(C)C3=CC(=O)OC4c3ccoc3)C1(C)C2=O (stereo not drawn)
inactive: cytotoxicity call (HSkMC) | cytotoxicity call (HepG2) | growth inhibition call (S. aureus RN4220)

CC[C@H]1Sc2ccccc2NC1=O
inactive: cytotoxicity call (HSkMC) | cytotoxicity call (HepG2) | growth inhibition call (S. aureus RN4220)

C[C@H]1CCCCO[C@H](CN(C)C(=O)Nc2ccc(F)cc2)[C@@H](C)CN([C@@H](C)CO)C(=O)c2cc(NC(=O)Nc3ccc(F)cc3)ccc2O1
inactive: cytotoxicity call (HSkMC) | cytotoxicity call (HepG2) | growth inhibition call (S. aureus RN4220)

O=C(C[C@@H]1C=C[C@@H](NC(=O)Nc2cc(F)ccc2F)[C@H](CO)O1)NCCCN1CCOCC1
inactive: cytotoxicity call (HSkMC) | cytotoxicity call (HepG2) | growth inhibition call (S. aureus RN4220)

CCOP(=O)(CC(=O)O[C@H]1[C@@H]2OC(=O)[C@@H](Cc3ccc4ccccc4c3)C/C=C\C[C@H](Cc3ccc4ccccc4c3)C(=O)O[C@H]2[C@@H](OC)O[C@@H]1COC(=O)NCCCCCC(=O)NO)OCC
inactive: cytotoxicity call (HSkMC) | cytotoxicity call (HepG2) | growth inhibition call (S. aureus RN4220)

NCCSSCCN
inactive: cytotoxicity call (HSkMC) | cytotoxicity call (HepG2) | growth inhibition call (S. aureus RN4220)

COc1ccc(CN(C)C[C@H]2OCCCC[C@@H](C)Oc3ccc(NC(=O)NC4CCCCC4)cc3C(=O)N([C@@H](C)CO)C[C@@H]2C)cc1
inactive: cytotoxicity call (HSkMC) | cytotoxicity call (HepG2) | growth inhibition call (S. aureus RN4220)
